Experimental data: publication PMC3519786, “Novel Interactions between FOXM1 and CDC25A Regulate the Cell Cycle” (PLoS ONE, 2012)
These are yes or no findings as the source states them, for the method shown. In cells and extracts the contact can be indirect. Some binding calls cover weakened binding; strength is not graded here.

Molecular target: T1, endogenous CDC25A (human (endogenous in U2OS)) (UniProt P30304)
T1 sequence: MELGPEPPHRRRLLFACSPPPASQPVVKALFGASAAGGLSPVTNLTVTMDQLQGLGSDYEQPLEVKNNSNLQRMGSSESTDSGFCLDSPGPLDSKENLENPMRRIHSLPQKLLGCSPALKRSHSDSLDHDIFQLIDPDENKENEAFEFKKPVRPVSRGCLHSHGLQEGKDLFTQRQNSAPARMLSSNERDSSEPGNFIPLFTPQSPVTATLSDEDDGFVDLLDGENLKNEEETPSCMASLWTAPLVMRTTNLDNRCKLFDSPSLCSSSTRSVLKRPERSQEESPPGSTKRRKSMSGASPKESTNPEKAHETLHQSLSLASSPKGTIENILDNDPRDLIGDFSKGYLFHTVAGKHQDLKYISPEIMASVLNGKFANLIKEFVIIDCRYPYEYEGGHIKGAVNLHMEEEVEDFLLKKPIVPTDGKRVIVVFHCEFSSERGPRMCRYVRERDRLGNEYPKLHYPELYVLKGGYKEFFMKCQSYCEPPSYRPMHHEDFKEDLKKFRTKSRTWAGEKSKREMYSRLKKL
Assay: co-IP; endogenous proteins, U2OS lysate in MPER with protease/phosphatase inhibitors; pre-cleared with protein G sepharose and normal rabbit IgG; anti-CDC25A antibody overnight at 4°C, protein G sepharose 1 h; blot with anti-FOXM1

B1: endogenous FOXM1 (protein, UniProt Q08050 1-763)
chain: MKTSPRRPLILKRRRLPLPVQNAPSETSEEEPKRSPAQQESNQAEASKEVAESNSCKFPAGIKIINHPTMPNTQVVAIPNNANIHSIITALTAKGKESGSSGPNKFILISCGGAPTQPPGLRPQTQTSYDAKRTEVTLETLGPKPAARDVNLPRPPGALCEQKRETCADGEAAGCTINNSLSNIQWLRKMSSDGLGSRSIKQEMEEKENCHLEQRQVKVEEPSRPSASWQNSVSERPPYSYMAMIQFAINSTERKRMTLKDIYTWIEDHFPYFKHIAKPGWKNSIRHNLSLHDMFVRETSANGKVSFWTIHPSANRYLTLDQVFKPLDPGSPQLPEHLESQQKRPNPELRRNMTIKTELPLGARRKMKPLLPRVSSYLVPIQFPVNQSLVLQPSVKVPLPLAASLMSSELARHSKRVRIAPKVLLAEEGIAPLSSAGPGKEEKLLFGEGFSPLLPVQTIKEEEIQPGEEMPHLARPIKVESPPLEEWPSPAPSFKEESSHSWEDSSQSPTPRPKKSYSGLRSPTRCVSEMLVIQHRERRERSRSRRKQHLLPPCVDEPELLFSEGPSTSRWAAELPFPADSSDPASQLSYSQEVGGPFKTPIKETLPISSTPSKSVLPRTPESWRLTPPAKVGGLDFSPVQTSQGASDPLPDPLGLMDLSTTPLQSAPPLESPQRLLSSEPLDLISVPFGNSSPSDIDVPKPGSPEPQVSGLAANRSLTEGLVLDTMNDSLSKILLDISFPGLDEDPLGPDNINWSQFIPELQ
binding: binds
